Reference: publication PMC4336329 (PLoS ONE, 2015)
The campaign covered roughly 310,000 compounds. About 2,200 (0.71%) showed an effect of 50% or more. Effects have a minus sign here. The list shows a part of the results.

biological target: human ether-à-go-go-related gene (hERG) potassium channel (human, UniProt Q12809); assay: primary screen, population patch clamp on CHO cells stably expressing hERG
Sequence (Q12809 whole entry, looked up): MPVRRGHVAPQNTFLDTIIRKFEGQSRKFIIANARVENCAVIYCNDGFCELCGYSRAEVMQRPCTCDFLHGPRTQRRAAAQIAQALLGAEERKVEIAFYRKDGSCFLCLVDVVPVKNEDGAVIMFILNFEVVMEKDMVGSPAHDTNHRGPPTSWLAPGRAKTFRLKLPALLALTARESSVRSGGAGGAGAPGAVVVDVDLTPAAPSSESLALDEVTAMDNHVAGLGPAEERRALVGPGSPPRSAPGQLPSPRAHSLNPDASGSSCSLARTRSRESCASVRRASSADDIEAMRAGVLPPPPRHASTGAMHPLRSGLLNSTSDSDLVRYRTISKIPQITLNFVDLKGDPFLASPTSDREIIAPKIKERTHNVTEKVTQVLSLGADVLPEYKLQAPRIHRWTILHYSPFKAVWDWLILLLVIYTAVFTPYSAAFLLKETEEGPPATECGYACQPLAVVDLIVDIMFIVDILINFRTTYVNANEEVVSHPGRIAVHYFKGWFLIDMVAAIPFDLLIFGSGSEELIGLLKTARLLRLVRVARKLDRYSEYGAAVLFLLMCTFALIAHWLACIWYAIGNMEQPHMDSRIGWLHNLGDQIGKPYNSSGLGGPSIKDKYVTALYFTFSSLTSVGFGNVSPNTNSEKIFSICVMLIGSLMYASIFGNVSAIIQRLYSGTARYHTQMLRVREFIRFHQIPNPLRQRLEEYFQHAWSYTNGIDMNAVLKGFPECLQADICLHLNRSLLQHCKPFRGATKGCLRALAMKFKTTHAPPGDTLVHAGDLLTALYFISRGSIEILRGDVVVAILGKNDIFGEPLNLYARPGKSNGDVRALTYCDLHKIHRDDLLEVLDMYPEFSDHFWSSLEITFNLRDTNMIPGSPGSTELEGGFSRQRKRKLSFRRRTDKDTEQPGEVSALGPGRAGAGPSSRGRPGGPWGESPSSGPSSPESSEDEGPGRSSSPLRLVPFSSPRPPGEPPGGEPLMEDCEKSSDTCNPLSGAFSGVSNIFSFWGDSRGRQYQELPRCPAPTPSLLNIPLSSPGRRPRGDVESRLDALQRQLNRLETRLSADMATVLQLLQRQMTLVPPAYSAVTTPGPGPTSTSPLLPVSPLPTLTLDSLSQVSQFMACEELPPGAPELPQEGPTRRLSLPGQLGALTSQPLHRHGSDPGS

| Compound | hERG current change (%, negative = inhibition) at 1uM [%] |
| --- | --- |
| COCC1CCN(Cc2c(C(=O)N3CCc4ccccc4C3)nc3ccc(Cl)cn23)C1 (stereo not shown) | 7.32 |
| COc1ccc2oc(=N)c(C(=O)Nc3ccccc3Cl)cc2c1 | -1.45 |
| CC1CCC/C=C/C2CC(O)CC2C(O)/C=C/C(=O)O1 (stereo not shown) | 6.33 |
| CCOc1ccc(C(=O)n2cnnc2N)cc1 | 16.9 |
| Cc1ccc(C)c(OCC(=O)Nc2ccccc2C(=O)NC2CC2)c1 | 2.82 |
| CC(=O)Nc1ccc(-c2csc(NC=C3C(=O)OC(C)(C)OC3=O)n2)cc1 | 17.8 |
| Cc1cccc(C)c1NC(=O)c1cccc2c1C(=O)N(C1CCCCC1)C2 | 10.1 |
| COc1ccc(Cl)cc1NC(=O)CN1C(=O)NC(C)(Cc2ccc(OC)c(OC)c2)C1=O (stereo not shown) | 8.86 |
| CCn1ccc(C(=O)NCCCN2CCCC2=O)n1 | -2.78 |
| COc1ccc(Cc2c(O)nc[nH]c2=O)cc1 | 19.2 |
| O=C(NCCNC(=O)c1ccc([N+](=O)[O-])cc1)c1ccncc1 | 16.5 |
| CCC(=O)c1ccc(OCC(O)CN2CCN(S(=O)(=O)N3CCCCC3)CC2)cc1 (stereo not shown) | 3.13 |
| Cc1cc(N)n(-c2ccccn2)n1 | 12.1 |
| CCCCOC(=O)C(C)Nc1n[nH]c(=O)[nH]c1=O (stereo not shown) | 11.9 |
| Cc1ccc(S(=O)(=O)N(C)C)cc1NC(=S)Nc1cccc2ccccc12 | -2.98 |
| CC12CCC(=O)N1C(C(=O)NNC(=O)c1ccccc1F)CS2 (stereo not shown) | 15.1 |
| Cc1cc(Oc2ccccc2)nc(SCC(=O)Nc2ccc(Cl)c(Cl)c2)n1 | -2.3 |
| CC(C)(C)c1ccc(OCC(O)CN2CCc3ccccc3C2)cc1.Cl (stereo not shown) | 3.04 |
| Cc1nn(-c2ccc(C(=O)OC(C)C)cc2)c(C)c1[N+](=O)[O-] | 12.7 |
| S=C(NCCc1ccccc1)Nc1ccccc1Cl | 8.47 |
| COc1ccc(CN(CC(=O)NCc2ccco2)C(=O)CNS(=O)(=O)c2ccc(C)cc2)cc1 | -0.462 |
| COCCCNC(=S)N1CCN(c2nc3ccccc3s2)CC1 | 4.7 |

| Compound | hERG current change (%, negative = inhibition) at 1uM [%] |
| --- | --- |
| COc1ccccc1N1CCN(C(=O)c2onc(C)c2Cl)CC1 | -9.89 |
| COc1ccc(C(=O)N2CCCC(C(N)=O)C2)cc1S(=O)(=O)N1CCOCC1 (stereo not shown) | 10.7 |
| O=C(NCCC1=CCCCC1)c1cc(S(=O)(=O)N2CCOCC2)ccc1F | 2.18 |
| Cc1cc2occ(CC(=O)NC3=NCCS3)c2cc1C(C)C | 19.3 |
| CCC(CC)C(=O)Nc1cccc(/C(C)=N\NC(=O)c2ccc(C)s2)c1 | 7.6 |
| Cc1cc(C)cc(N(CC(=O)NCc2ccco2)S(=O)(=O)c2ccccc2)c1 | 8 |
| Cc1cc2c(cc1S(=O)(=O)Nc1cccc(C)c1C)n(C)c(=O)c(=O)n2C | -10.7 |
| CC1CC(C)CN(S(=O)(=O)c2ccc(C(=O)Nc3nnc(C4CC4)o3)cc2)C1 (stereo not shown) | 10.1 |
| CCN(CC(=O)Nc1ccc2c(c1)OCCO2)C(=O)/C=C/c1ccc([N+](=O)[O-])cc1 | -8.69 |
| Cc1cc(C)cc(NC(=O)NC(C)C2CCCO2)c1 (stereo not shown) | 14 |
| CCN(CC)CCOC(=O)c1ccc(N/C=C(/C#N)c2nc(-c3ccc(OC)cc3)cs2)cc1 | 14.1 |
| COc1ccc(CC(=O)O/N=C(\N)Cc2ccc([N+](=O)[O-])cc2)cc1 | -13.8 |
| COCCNC(=O)C(c1ccc(C)cc1)N(Cc1cccs1)C(=O)CCC(=O)Nc1ccccn1 (stereo not shown) | 13.6 |
| Cc1ccc(C(=O)c2cc([N+](=O)[O-])ccc2N2CCN(C)CC2)cc1 | -40.4 |
| Cc1ccc(NC(=O)CSc2nc3[nH]ncc3c(=O)[nH]2)cc1Cl | 9.59 |
| COc1ccccc1CN(C)C(=O)CSc1nnc(C2CC2)n1C1CC1 | 11.4 |
| COc1ccc(-c2cc(C(=O)N3CCN(C(=O)c4ccco4)CC3)[nH]n2)cc1 | -12.7 |
| COC(=O)c1cccc(Nc2ccc([N+](=O)[O-])cn2)c1 | 12.6 |
| Cc1cccc(S(=O)(=O)NC(Cc2c[nH]c3ccccc23)C(=O)O)c1 (stereo not shown) | 16.7 |
| CN1CCN(CC(=O)c2ccccc2F)CC1.O=C(O)C(=O)O | 18.5 |
| O=C(N/N=C/c1cc([N+](=O)[O-])ccc1O)c1cc(-c2ccccc2)nc2ccccc12 | 17.8 |
| O=C(CCC(=O)Nc1ccc(F)cc1)N/N=C/c1ccc(O)cc1 | 12.2 |

| Compound | hERG current change (%, negative = inhibition) at 1uM [%] |
| --- | --- |
| O=C(CSC1=NS(=O)(=O)c2cc(F)ccc2N1)Nc1ccccc1 | 11.8 |
| Cc1cc(C(=O)O)c(C)n1Cc1ccncc1 | 4.87 |
| COc1ccc(OCc2cc(C(=O)N[C@H]3CCCCNC3=O)no2)c(Cl)c1 | 8.31 |
| COCc1cc(=O)oc2cc(NS(=O)(=O)c3ccc(C)cc3)ccc12 | 16.5 |
| CCN(C(=O)COC(=O)CCOc1ccccc1)c1c(N)n(Cc2ccccc2)c(=O)[nH]c1=O | 16 |
| COc1cc(C(c2c(C)[nH][nH]c2=O)c2c(C)[nH][nH]c2=O)cc([N+](=O)[O-])c1O | 5.04 |
| Cc1ccnc(NC(=O)c2cc3cc(F)ccc3s2)c1 | 18.6 |
| COc1ccc(S(=O)(=O)N2CCN(CC(=O)c3[nH]c(C)c(C(C)=O)c3C)CC2)cc1OC | 10.5 |
| Cc1ccc(C)c(N2CCN(C(=O)C3CCC3)CC2)c1 | 13.6 |
| CC(C)(C)c1nc2c(s1)CCc1onc(-c3ccc(Cl)cc3)c1-2 | 14.9 |
| Cn1nnnc1SCc1ccc(C(=O)Nc2ccccc2F)cc1 | 10.5 |
| Cc1ccc(N(CC(=O)NCC2CCCO2)S(=O)(=O)c2ccc(Cl)cc2)cc1C (stereo not shown) | -9.43 |
| CN(C)c1ccnc(N(Cc2ccccc2)Cc2ccccc2)c1C#N.Cl | 4.29 |
| Cc1cc(C)c(NC(=O)CCCSc2nnc(N)s2)c(C)c1 | -4.26 |
| Cc1c(C(=O)OCC(=O)NCCN2C(=O)CSC2=O)cccc1[N+](=O)[O-] | -0.686 |
| Cc1ccc(-n2c(Cc3cccn3C)nnc2SCC(=O)N2CCN(c3ccccc3)CC2)cc1 | 7.16 |
| COc1cccc(NC(=O)NCc2ccccn2)c1 | 10.4 |
| COc1ccc(CCNC(=O)CCNC(=O)c2ccc([N+](=O)[O-])cc2)cc1 | 3.57 |
| Cc1nn(C)c2ncc(C(N)=O)c(Oc3cccnc3)c12 | 5.33 |
| COC(=O)C1CCN(C(=O)COC(=O)CNS(=O)(=O)c2ccc(SC)c([N+](=O)[O-])c2)CC1 | 3.87 |
| Cc1nc2nc(SCC(=O)NCCCN3CCCCCC3)nn2c(C)c1Cc1ccccc1 | 5.32 |
| COc1ccc(CCNC(=O)CN2CCN(c3cccc(Cl)c3)CC2)cc1OC | -1 |

| Compound | hERG current change (%, negative = inhibition) at 1uM [%] |
| --- | --- |
| Cn1c(CCNC(=O)c2ccccc2)nc2ccccc21 | 3.32 |
| Cc1ccc(NC(=O)CSc2nc3ccccc3nc2N2CCCC2)cc1 | -2.13 |
| Cc1nn(CC(=O)NCCCN2CCCCC2)c(=O)c2cccn12 | 15.8 |
| CCOC(=O)CNC(=S)N(Cc1ccc(C)cc1)Cc1ccc(C)o1 | 13.6 |
| CC(=O)Nc1ccc(NC(=O)C2CCCN2C(=O)Nc2ccc(F)c([N+](=O)[O-])c2)cc1 (stereo not shown) | 9.34 |
| CC(C)NC(=O)Nc1cccs1 | 0.285 |
| CCCCn1c(N)c(NCCC(C)C)c(=O)[nH]c1=O | 4.07 |
| CCn1c(SCC(=O)NC2CCCCC2)nnc1C(CO)NC(=O)c1ccccc1 (stereo not shown) | 14.4 |
| CCCN(Cc1ccc(C)cc1)C(=O)c1ccc(CNS(=O)(=O)c2ccc(C(C)=O)cc2)cc1 | 11.1 |
| COc1cc(NC(=O)c2ccc(=O)[nH]n2)cc(OC)c1OC | 10.1 |
| CCOC(=O)c1sc(=NC(=O)c2ccc(Cl)s2)n(C)c1C | 9.8 |
| Cc1cc(C)nc(N/N=C/C2=C(N3CCOCC3)C(=C\c3ccc(Cl)cc3)/CC2)n1.Cl | -8.67 |
| CCCCCn1c(SC(C)C(C)=O)nc2c1c(=O)[nH]c(=O)n2C (stereo not shown) | -91.2 |
| NC(=O)c1cc2cc(Cl)ccc2o/c1=N/NC(=O)c1cccs1 | 8.08 |
| O=C(CN1CCN(Cc2cccc3ccccc23)CC1)NCCc1ccccc1 | 1.53 |
| CN(c1ccc(OCC(=O)NC2=NCCS2)cc1)S(=O)(=O)c1ccc(F)cc1 | 11.2 |
| CCN(CC(=O)Nc1ccccc1OC)C(=O)CN1C(=O)NC(C)(c2ccc(C)cc2)C1=O (stereo not shown) | -2.64 |
| O=C(CN1CCN(S(=O)(=O)c2ccc(Br)cc2)CC1)Nc1ccccc1F | 1.13 |
| CCOc1ccc(NC(=O)CN(C)C(=O)CC2CCCC2)cc1OCC | 11.4 |
| O=C(CSc1cc(Cl)ccc1Cl)NC1CCCc2ccccc21 (stereo not shown) | 1.23 |
| O=C(CCn1c2c(c3ccccc31)CCCC2)NNC(=O)c1ccccc1[N+](=O)[O-] | -0.313 |
| CCOC(=O)c1cnc2ccc(OCC)cc2c1NCCN1CCOCC1.Cl | -32.8 |
